Results as given in patent publication US20220064329A1 (Novo Nordisk, published 2022).

B1: mAb0077(OA) (other)
heavy: DVQLQESGPGLVEPSQSLSLTCTVTGYSITSDCAWSWIRQFPGNKLEWMGYINYSGSTNYNPSLKSRISVTRDTSKNQFFLRLSSVTAEDTATYYCTRSVNYYGNSFAVGYWGQGTSVTVSSASTKGPSVFPLAPCSRSTSESTAALGCLVKDYFPEPVTVSWNSGALTSGVHTFPAVLQSSGLYSLSSVVTVPSSSLGTKTYTCNVDHKPSNTKVDKRV[no letters for human IgG4 Fc with S228P (EU numbers)]
light: DIVMTQSPATLSVTAGDRVSLSCRASQGISDYLHWYQQKSHESPRLLIKYTSQPVSGIPSRFSGSGSGSEFTLSINSVEPEDVGVYYCQNGHSFPLTFGAGTKLELKRTVAAPSVFIFPPSDEQLKSGTASVVCLLNNFYPREAKVQWKVDNALQSGNSQESVTEQDSKDSTYSLSSTLTLSKADYEKHKVYACEVTHQGLSSPVTKSFNRGEC
chain: VESKYGPPCPPCPAPEFLGGPSVFLFPPKPKDTLMISRTPEVTCVVVDVSQEDPEVQFNWYVDGVEVHNAKTKPREEQFNSTYRVVSVLTVLHQDWLNGKEYKCKVSNKGLPSSIEKTISKAKGQPREPQVYTLPPSQEEMTKNQVSLTCLVKGFYPSDIAVEWESNGQPENNYKTTPPVLDSDGSFLLYSKLTVDKSRWQEGNVFSCSVMHEALHNHYTQKSLSLSLGK
notes: one-armed (monovalent) antibody, murine VL/VH, constant domain type E (Duobody): heavy chain, truncated heavy chain (trHC) and one light chain; also called monovalent 11F2; one-armed 11F2
B2: mAb0842(OA) (other)
heavy: QVQLQESGPGLVKPSQTLSLTCTVSGYSISSDSAWSWIRQPPGKGLEWIGYIQYSGSTNYNPSLKSRVTISRDTSKNQFSLKLSSVTAADTAVYYCARSVNYYGNSFAVGYWGQGTLVTVSSASTKGPSVFPLAPCSRSTSESTAALGCLVKDYFPEPVTVSWNSGALTSGVHTFPAVLQSSGLYSLSSVVTVPSSSLGTKTYTCNVDHKPSNTKVDKRVESKYGPPCPPCPAPEFLGGPSVFLFPPKPKDTLMISRTPEVTCVVVDVSQEDPEVQFNWYVDGVEVHNAKTKPREEQFNSTYRVVSVLTVLHQDWLNGKEYKCKVSNKGLPSSIEKTISKAKGQPREPQVYTLPPSQEEMTKNQVSLSCAVKGFYPSDIAVEWESNGQPENNYKTTPPVLDSDGSFFLVSRLTVDKSRWQEGNVFSCSVMHEALHNHYTQKSLSLSLGK
light: EIVLTQSPATLSLSPGERATLSCRASQGISDYLHWYQQKPGEAPRLLIKYTSQPATGIPARFSGSGSGTDFTLTISSLEPEDFAVYYCQNGHSFPLTFGQGTKLEIKRTVAAPSVFIFPPSDEQLKSGTASVVCLLNNFYPREAKVQWKVDNALQSGNSQESVTEQDSKDSTYSLSSTLTLSKADYEKHKVYACEVTHQGLSSPVTKSFNRGEC
chain: [no letters for human IgG4 Fc with S228P T366W (EU numbers)]
notes: one-armed antibody, constant domain type F (knob-in-hole): heavy chain, truncated heavy chain (trHC) and one light chain; also called monovalent humanized 11F2

Legend:
[1] = molecular target: T1, cFVIIa-chimera (chimeric cynomolgus monkey FVIIa construct) (human; cynomolgus monkey); assay: SPR 37 C, cFVIIa-chimera captured via antibody 4F9 on anti-murine IgG, antibody injected; Buffer 2 (pH 6.0, 5 uM CaCl2)
T1 construct: range 89-406

[2] = molecular target: T1, cFVIIa-chimera (chimeric cynomolgus …); assay: SPR 37 C, cFVIIa-chimera captured via antibody 4F9 on anti-murine IgG, antibody injected; Buffer 1 (pH 7.4, 5 mM CaCl2)

| Binder | Kd [1] | Kd [2] |
| --- | --- | --- |
| B1 | 0.652 nM | 0.469 nM |
| B2 | 1.6 nM | 1.02 nM |
